56 compounds from PMC4336329 (PLoS ONE, 2015) can be followed below.

Screen size: about 310,000 compounds; about 14,000 (4.5%) showed an effect of 50% or more. The effect is printed as a negative number. Some of the results follow.
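Also: peak tail current of the secondary pulse compared with the same well before compound.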

In this assay the target is human ether-à-go-go-related gene (hERG) potassium channel (human, UniProt Q12809). Description: primary screen, population patch clamp on CHO cells stably expressing hERG.
human ether-à-go-go-related gene (hERG) potassium channel, sequence (Q12809 whole entry, looked up): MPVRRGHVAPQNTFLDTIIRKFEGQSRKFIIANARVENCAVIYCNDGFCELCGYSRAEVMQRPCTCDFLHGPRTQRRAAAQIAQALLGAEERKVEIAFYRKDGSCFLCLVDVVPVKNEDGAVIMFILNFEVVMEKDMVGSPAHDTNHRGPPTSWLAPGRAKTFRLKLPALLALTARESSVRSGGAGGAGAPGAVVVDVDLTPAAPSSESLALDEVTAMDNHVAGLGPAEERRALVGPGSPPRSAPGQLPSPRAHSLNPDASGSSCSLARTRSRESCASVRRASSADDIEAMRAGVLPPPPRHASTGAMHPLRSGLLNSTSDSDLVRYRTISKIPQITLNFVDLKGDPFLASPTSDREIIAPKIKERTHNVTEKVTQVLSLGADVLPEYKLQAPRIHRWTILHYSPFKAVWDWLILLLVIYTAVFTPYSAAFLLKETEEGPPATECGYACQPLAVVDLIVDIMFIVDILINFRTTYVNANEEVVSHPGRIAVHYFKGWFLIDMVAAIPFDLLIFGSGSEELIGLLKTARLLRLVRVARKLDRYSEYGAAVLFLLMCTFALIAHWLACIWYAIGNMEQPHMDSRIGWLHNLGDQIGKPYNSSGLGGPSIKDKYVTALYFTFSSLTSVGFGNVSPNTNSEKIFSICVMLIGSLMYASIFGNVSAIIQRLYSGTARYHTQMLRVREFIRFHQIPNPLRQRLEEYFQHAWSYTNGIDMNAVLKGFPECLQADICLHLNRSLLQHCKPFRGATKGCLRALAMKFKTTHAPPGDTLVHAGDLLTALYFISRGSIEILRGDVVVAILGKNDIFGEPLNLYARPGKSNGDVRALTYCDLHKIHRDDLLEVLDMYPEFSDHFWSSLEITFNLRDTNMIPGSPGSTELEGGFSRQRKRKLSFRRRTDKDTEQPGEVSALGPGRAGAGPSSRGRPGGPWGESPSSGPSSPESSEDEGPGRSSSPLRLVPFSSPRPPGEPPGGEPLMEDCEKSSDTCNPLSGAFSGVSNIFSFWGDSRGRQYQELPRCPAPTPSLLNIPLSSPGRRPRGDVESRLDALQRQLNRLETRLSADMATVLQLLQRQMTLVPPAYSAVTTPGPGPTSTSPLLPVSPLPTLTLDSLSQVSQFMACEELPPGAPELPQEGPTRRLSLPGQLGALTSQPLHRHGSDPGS
As to `CCOC(=O)N1CCC(N(CCN(C)C)C(=S)Nc2ccc(OCC)cc2)CC1`, the “hERG current change (%, negative = inhibition) at 10uM” value is -10.3%. Then `CN(C)c1ccc(/C=N/NC(=O)CNC(=O)/C=C/c2ccco2)cc1`, with -9.23%; and `COc1cc(C(=O)NCC(c2ccco2)N(C)C)cc(OC)c1OC` (centres unmarked), with -5.76%. In the case of `O=C(CSc1nc2ccccc2s1)Nn1cnnc1`, the “hERG current change (%, negative = inhibition) at 10uM” value is -10.8%. With `COc1cccc(/C=C2\Sc3ccc(C(=O)NCC4CCCO4)cc3N(C)C2=O)c1` (centres unmarked), the “hERG current change (%, negative = inhibition) at 10uM” value is on record as -19.9%. As to `Cc1ccc(OCC(=O)N2CCc3ccccc3C2)c(Br)c1`, the “hERG current change (%, negative = inhibition) at 10uM” value is recorded as 0.848%. Regarding `COc1ccccc1OCC(=O)N/N=C/c1c(O)ccc2ccccc12`, the “hERG current change (%, negative = inhibition) at 10uM” value was 4.13%. To `O=C(NN=C1CCN(Cc2ccccc2)CC1)c1ccccc1` belongs 7.78%; to `C=CCNC(=S)NNc1ncnc2sc3c(c12)CC(C)(C)OC3`, 11%; to `O=C(NCC1CCN(c2ccc(S(=O)(=O)N3CCOCC3)cc2)CC1)Nc1ccccc1`, 10.4%. Turning to `COc1ccc(Cl)cc1NS(=O)(=O)c1c(C)[nH]c(C)c1C(=O)N1CCCCC1`, the “hERG current change (%, negative = inhibition) at 10uM” value is given as -3.77%. As to `CCC(C)Sc1cc(-c2nc3ccccn3c2NC2CCCCC2)ccc1OC.O=C(O)C(F)(F)F` (centres unmarked), the “hERG current change (%, negative = inhibition) at 10uM” value is 0.241%. On to `CSCCC(NC(N)=O)C(=O)Nc1ccc2ccccc2c1` (centres unmarked), for which the “hERG current change (%, negative = inhibition) at 10uM” value is 28%. `CC(C)(C)NC(=O)CSc1nnc(Cc2ccc3c(c2)OCO3)n1C1CCCCC1`: the “hERG current change (%, negative = inhibition) at 10uM” value is reported as 9.73%. Then `O=C(N=C1SC2CS(=O)(=O)CC2N1c1cc(Cl)ccc1Cl)C1CCCO1` (centres unmarked), with -8.6%; and `COc1cc(C(=O)NCc2cn3ccccc3n2)cc(OC)c1OC`, with -5.15%; and `OC(COC1CCCCC1)CN1CCN(c2ccccc2)CC1` (centres unmarked), with -29.8%. `COc1cccc(NC(=O)c2csc3c2CCCC3)c1`: the “hERG current change (%, negative = inhibition) at 10uM” value was determined as 23.8%. Then `O=C(Nc1cc2c3c(c1)CC(=O)N3CCC2)C1CC1`, with 9.48%; and `COC(=O)CSc1nc(NC(C)C)nc(N(C)C)n1`, with 11.2%. `COc1cc(/C=N/Nc2nc3ccccc3[nH]2)cc(OC)c1O`: the “hERG current change (%, negative = inhibition) at 10uM” value is -55.9%.

In the case of `C=CCNC(=O)C(=O)c1cccn1-c1ccsc1C(=O)OC`, the “hERG current change (%, negative = inhibition) at 10uM” value came to 8.72%. For the compound `CCOC(=O)CSc1nnc(Cc2ccccc2)n1CC1CCCO1` (centres unmarked), the “hERG current change (%, negative = inhibition) at 10uM” value was found to be 5%.

In the case of `COC(=O)Cc1c(O)ccn(Cc2cccc3ccccc23)c1=O`, the “hERG current change (%, negative = inhibition) at 10uM” value is -1.37%. To `O=C(NCCc1ccc(F)cc1)c1ccc2c(=O)n3c(nc2c1)CCC3` belongs -45.7%; to `CCN(CC)C(=O)C1CCN(CC2CC=CCC2)CC1` (centres unmarked), -0.0716%; to `CCOC(=O)C1C(=O)CC(C)(O)C(C(=O)OCC)C1c1ccc([N+](=O)[O-])cc1` (centres unmarked), -8.06%. Then `COc1cc(C2c3c(oc4ccccc4c3=O)C(=O)N2c2ccc(C)cn2)ccc1O` (centres unmarked), with -1.3%; and `Cc1onc(-c2c(F)cccc2Cl)c1C(=O)OCC(=O)NC(N)=O`, with 6.22%; and `COc1cc(OC)c(N(C)C(=O)CCNC(=O)Cn2cnc3ccccc3c2=O)cc1Cl`, with -25.3%. As to `c1cc(CNCC2CCCO2)ccn1` (centres unmarked), the “hERG current change (%, negative = inhibition) at 10uM” value amounted to 22.8%.

As to `CCCCn1c(N)c(N(CC(C)C)C(=O)C2CCCO2)c(=O)[nH]c1=O` (centres unmarked), the “hERG current change (%, negative = inhibition) at 10uM” value amounted to 15.2%. With `COc1ccc2oc(C(=O)Nc3nc4ccc(S(C)(=O)=O)cc4s3)c(C)c2c1`, the “hERG current change (%, negative = inhibition) at 10uM” value amounted to 7.81%. To `CCNc1nc(NCC)n2c(SCC(=O)Nc3ccc(OC)c(OC)c3)nnc2n1` belongs 16.8%; to `O=C(CNc1cc(S(=O)(=O)N2CCCC2)ccc1OCC(F)(F)F)Nc1cccc(C(F)(F)F)c1`, -15.7%. With `O=c1cc(NS(=O)(=O)c2ccccc2)nc(SCc2ccccc2Cl)[nH]1`, the “hERG current change (%, negative = inhibition) at 10uM” value is on record as 6.99%.

`O=C(NC(=S)Nc1cccc(Cl)c1N1CCCCC1)c1cccs1`: the “hERG current change (%, negative = inhibition) at 10uM” value came to 22.7%. As to `CC(C)[C@H](NC(=O)c1ccccc1Cl)C(=O)OCC(=O)NC(=O)NC1CCCC1`, the “hERG current change (%, negative = inhibition) at 10uM” value was 6.08%.

`O=C(CN1CCN(C(c2ccccc2)c2ccccc2)CC1)NC(=O)NCc1ccco1`: the “hERG current change (%, negative = inhibition) at 10uM” value is recorded as -5.1%.

For the compound `Cc1cccc(C)c1NC(=O)CSc1nnnn1-c1ccc(C(=O)O)cc1`, the “hERG current change (%, negative = inhibition) at 10uM” value is reported as -20.9%.

Take `CCc1ccccc1NC(=O)C1CCCN(c2nn3c(=O)cc(C)nc3s2)C1` (centres unmarked): the “hERG current change (%, negative = inhibition) at 10uM” value is on record as -0.0691%. Then `CCOC(=O)C1CCCN(Cc2ccccc2C)C1` (centres unmarked), with -15.1%; and `COC(=O)C1=C(c2ccc3ccccc3c2)C[C@@H]2CC[C@H]1N2C(=O)NCCO`, with 6.99%. For `Cc1ccc(C(=O)NC2CCC(C)CC2)s1` (centres unmarked), the “hERG current change (%, negative = inhibition) at 10uM” value was -2.36%. Consider `Cc1nc(Nc2ccc3c(c2)OCCO3)c2oc3ccccc3c2n1`, for which the “hERG current change (%, negative = inhibition) at 10uM” value was -5.62%. For the compound `Cc1nnc(NC(=O)CCSc2ccccc2)s1`, the “hERG current change (%, negative = inhibition) at 10uM” value is 1.73%. To `COc1ccccc1N1CCN(C(=O)C2c3ccccc3Oc3ccccc32)CC1` belongs -14.9%. Turning to `C[C@H](NC(=O)[C@@H]1CSC2c3ccccc3C(=O)N21)C(=O)NCc1c(F)cccc1Cl` (some centres unmarked), the “hERG current change (%, negative = inhibition) at 10uM” value came to 4.53%.

As to `COc1ccc(-c2noc(CCC(=O)N3CCN(Cc4ccccc4)CC3)n2)cc1`, the “hERG current change (%, negative = inhibition) at 10uM” value is listed as -32.8%. `COc1ccccc1N1C(=O)C2C(c3ccccc3F)NN(C(=O)c3ccc(C)cc3)C2C1=O` (centres unmarked): the “hERG current change (%, negative = inhibition) at 10uM” value is given as -3.72%. For `Cc1cc(NC(=O)c2cccs2)ccc1NC(=O)Cc1ccccc1`, the “hERG current change (%, negative = inhibition) at 10uM” value came out at 5.7%. `COc1ccc(S(=O)(=O)N2CCC(C(=O)NCc3cccnc3)CC2)cc1C`: the “hERG current change (%, negative = inhibition) at 10uM” value amounted to 6.12%.

With `Cc1cc(C(=O)COC(=O)Cc2n[nH]c(=O)c3ccccc23)c(C)n1-c1ccc2c(c1)OCO2`, the “hERG current change (%, negative = inhibition) at 10uM” value is 10.7%. `COc1ccc(CN2CCN(C(=O)c3cccc4ccccc34)CC2)cc1Br`: the “hERG current change (%, negative = inhibition) at 10uM” value stood at 0.873%. Consider `O=C(CCSc1nnc(-c2ccco2)o1)N1CCOCC1`, for which the “hERG current change (%, negative = inhibition) at 10uM” value is recorded as -10.4%. Regarding `COc1ccc(NC(C)=O)cc1NC(=O)c1ccc(Cl)cc1`, the “hERG current change (%, negative = inhibition) at 10uM” value was -18.2%.
